The whole screen tested about 360,000 compounds, of which about 7,500 (2.1%) were called active. This list was built around the results that the source calls inconclusive (neither active nor inactive); the mix of calls is not that of the screen. Calls come from the whole dose curve; as a rule, active = well fitted cell-killing curve with a large enough effect; inconclusive = small, poorly fitted or top-dose-only effect, or effect the other way, or another doubt; inactive = no such curve, though single readings can be large or run the other way. No potency is given beside an inconclusive call; the fits are too rough.
Assay: qHTS for induction of synthetic lethality in tumor cells producing 2HG: qHTS for the HT-1080-IDH1KD cell line;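 for activity, negative = toxicity: 0% = DMSO wells and -100% = cell-free medium wells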
Details: HT-1080 IDH1 knockdown viability, ATP luminescence, 48 h; activity, negative = toxicity: at 46.1 µM (top of the series) unless noted
Procedure, shortened: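 CellTiter-Glo luminescence after 48 h compound exposure at 37 degrees C of IDH1-knockdown HT-1080 cells in 5% FBS RPMI. %Activity scaled between DMSO wells and cell-free media wells, with curves fitted and assigned curve classes.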
Potency is the fitted concentration of half-maximal effect; tags give direction and shape of the fitted curve.

Compound | Potency | activity, negative = toxicity
Cc1ccc2c(c1)N(CCCC(=O)NCC1COc3ccccc3O1)C(=O)CO2 (configuration not stated) | inactive | –
CC(C)C[C@H]1CN([C@@H](Cc2ccccc2)CN2CCC[C@H]2CN2C(=O)C(=O)NC[C@@H]2Cc2ccc(O)cc2)C(=O)C(=O)N1CC1CCCCCC1 | inconclusive [cytotoxic, single point] | –
C=C1C(=O)OC2C1CCC(C)=C1C(=O)C3OC3(C)C12 (configuration not stated) | active: 16.4 µM | –
CN(C)c1cccc(/C=C(\C#N)c2ccccc2)c1 | active: 3.26 µM | –
CCCc1[nH]nc2c1C(C1CC=CCC1)C(C#N)=C(N)O2 (configuration not stated) | inconclusive [cytotoxic, single point] | –
COc1ccccc1CN(Cc1cc2cc(C)cc(C)c2[nH]c1=O)Cc1nnnn1CC1CCCO1 (configuration not stated) | inconclusive [cytotoxic, partial curve, poor fit] | –
CCCC(=O)NC(C)c1nc2ccccc2n1C (configuration not stated) | inactive | –
COc1ccc(C2NC(=O)c3ccccc3N2)c(OC)c1OC (configuration not stated) | inconclusive [cytotoxic, single point] | –
CCCCc1ccc(NC(=O)CSC2=C(C#N)C(c3ccco3)C3=C(CCCC3=O)N2)cc1 (configuration not stated) | inconclusive [cytotoxic, single point] | –
COCCNc1nc(NCC2CCCCC2)c2sc(-c3ccccc3)cc2n1 | active: 18.4 µM | –
CC(C)(C)C(=O)Nc1ccc(C(=O)Nc2cc(NC(=O)c3ccc(NC(=O)C(C)(C)C)cc3)cc(C(=O)O)c2)cc1 | – | inconclusive: 34.5%
O=C(O)c1nn2cc(CCO)cnc2c1Cl | inactive | –
Cc1cc(C)c(C)c(S(=O)(=O)N2CCC(C(=O)Nc3ccncc3)CC2)c1C | inconclusive [cytotoxic, single point] | –
Cc1ccn2cc(-c3cccc([N+](=O)[O-])c3)nc2c1 | – | inconclusive: -12.3% [cytotoxic]
O=C(COC(=O)CNC(=O)c1sc2ccccc2c1Cl)Nc1c(Cl)cc(Cl)cc1Cl | inconclusive [rising, partial curve, poor fit] | –
COc1ccc(Cl)cc1NC(=O)C1CCCN(S(=O)(=O)c2cccc3nonc23)C1 (configuration not stated) | inactive | –
COc1ccc(-c2cc(-c3ccccc3O)[nH]n2)cc1 | inconclusive [cytotoxic, single point] | –
COc1ccc(N2CC(C(=O)N(C)CC(=O)Nc3ccc(Cl)c(C(F)(F)F)c3)CC2=O)c(OC)c1 (configuration not stated) | – | inconclusive: -31.5% [cytotoxic]
Cc1ccc(N2C(=O)C(Cl)=C(Nc3c(C)n(C)n(-c4ccccc4)c3=O)C2=O)cc1 | inconclusive [cytotoxic, partial curve] | –
CC(C)(C)c1nnc(NC(=O)C2CC(=O)N(CCc3ccc(F)cc3)C2)s1 (configuration not stated) | inactive | –
CCN(CC)CCNC(=O)c1cc(Nc2ccc(OC)c(OC)c2)nc2ccccc12 | inconclusive [cytotoxic, single point] | –
Fc1ccc(Nc2nc(N3CCOCC3)nc(N3CCOCC3)n2)cc1Cl | inactive | –
COc1cccc(/C=N/Nc2ncnc3scc(-c4ccccc4)c23)c1O | inconclusive [cytotoxic, full curve, poor fit] | –
CCc1nnc(N/N=C\c2ccc(OC(C)=O)c(OC)c2)n1N | active: 18.4 µM | –

Compound | Potency | activity, negative = toxicity
OCCCCNCc1ccc(OCc2ccccc2Cl)cc1 | inconclusive [cytotoxic, single point] | –
COc1ccc(C2(c3ccc(OC)cc3)NC(=O)N(CC(=O)N(C)C3CCC(C)CC3)C2=O)cc1 (configuration not stated) | inactive | –
NS(=O)(=O)c1ccc(Nc2nc(-c3ccc4ccccc4c3)cs2)cc1 | inconclusive [cytotoxic, single point] | –
CC(C)(C)c1csc(NNC(=O)c2ccc(Br)cc2)n1 | active: 9.2 µM | –
COc1ccc(N(C(=O)c2ccc(C)cc2)S(=O)(=O)c2cccs2)cc1 | inconclusive [cytotoxic, partial curve] | –
CCOc1ccc(Br)cc1/C(C)=N\NC1=NCCN1 | inconclusive [cytotoxic, single point] | –
C#CC(C)(O)C1CC(CC(=O)O)C1(C)C (configuration not stated) | inactive | –
CC1CCCC(NC(=O)c2ccc3c(=O)n(CC4CCCO4)c(=O)[nH]c3c2)C1C (configuration not stated) | inactive | –
CC1c2cc3c(cc2CCN1C(=O)c1cccc(F)c1)OCCCO3 (configuration not stated) | inconclusive [cytotoxic, single point] | –
O=c1oc2cc(O)ccc2cc1-c1ccccc1 | inactive | –
C=CC[n+]1c(-c2ccc(OCC)cc2)csc1NNC(=O)Nc1ccccc1 | inconclusive [cytotoxic, single point] | –
Cn1c(N)c(C(=O)CSc2nc(N)cc(N)n2)c(=O)n(C)c1=O | inactive | –
COc1ccc(-c2nc3c4ccccc4ccn3c2Cc2ccc(C)cc2)cc1OC | inconclusive [cytotoxic, single point] | –
CC1CCN(S(=O)(=O)c2ccc(C(=O)Nc3nnc(C4=COCCO4)o3)cc2)CC1 | inconclusive [cytotoxic, single point] | –
COc1ccccc1C(c1nnnn1Cc1ccccc1)N1CCN(c2nc3ccccc3s2)CC1 (configuration not stated) | inactive | –
COc1ccc2nc(SCC(=O)N(C)CC(=O)Nc3ccc(F)cc3)[nH]c2c1 | inactive | –
O=C(CCCN1C(=O)C(=Cc2ccc3c(c2)OCO3)SC1=S)Nc1ccc(C(=O)O)c(O)c1 | inactive | –
CCN1C(=O)[C@@H]2Cc3c([nH]c4ccccc34)C(c3cc(OC)c(OC)c(OC)c3)N2C1=S (some centres not stated) | inconclusive [cytotoxic, single point] | –
CCOc1cc(C(=S)N2CCN(C)CC2)ccc1OCC(=O)N1CCCC1 | inactive | –
Cc1cc(C(=O)NCCC2=CCCCC2)c(C)o1 | inconclusive [cytotoxic, single point] | –
O=C(CSc1ccc(-c2ccccn2)nn1)Nc1cccc(F)c1 | inconclusive [cytotoxic, single point] | –
CC(C)c1c(O)ccc2c1CC[C@H]1C(C)(C)CCC[C@]21C | inconclusive [cytotoxic, single point] | –
Nc1nc(CCl)nc(Nc2ccc3ccccc3c2)n1 | active: 8.2 µM | –
Cc1noc(C)c1CSc1nc2ccccc2nc1NS(=O)(=O)c1ccc(Cl)cc1 | inconclusive [cytotoxic, single point] | –

Compound | Potency | activity, negative = toxicity
CNc1cnc(-c2ccccc2OC)cn1 | inconclusive [rising, partial curve] | –
CC(C)(C)c1ccc(NC(=O)NC2CCCc3ccccc32)cc1 (configuration not stated) | inconclusive [cytotoxic, single point] | –
COc1ccc(C(=O)Nc2sc3c(c2C(=O)O)CC(C)(C)OC3)cc1 | inconclusive [cytotoxic, full curve, poor fit] | –
Cc1ccccc1-c1nc(CS(=O)(=O)CC(=O)N2CCN(C)CC2)c(C)o1 | inactive | –
COc1cc(CN2CCCCCC2)cc([N+](=O)[O-])c1O | inactive | –
COc1ccc(CNC(=O)CN(C(=O)CCC(=O)Nc2nccs2)c2cccc(C)c2)cc1 | inconclusive [cytotoxic, single point] | –
COc1ccc(C(CNC(=O)c2ccc(NS(=O)(=O)c3ccc(F)c(C)c3)cc2)N2CCCC2)cc1 (configuration not stated) | inactive | –
O=C(CCl)N(c1ccccc1)C1CCS(=O)(=O)C1 (configuration not stated) | active: 18.4 µM | –
Cc1c(C(=O)Nc2cccc(C(F)(F)F)c2)oc2ccc(S(=O)(=O)N3CCOCC3)cc12 | inconclusive [cytotoxic, full curve] | –
CNS(=O)(=O)c1cc(-c2nnc(Nc3ccc(CC(N)=O)cc3)c3ccccc23)ccc1C | inactive | –
Cc1cccc(C)c1NC(=O)C(c1ccccc1)n1c(=O)c(-c2cc3ccccc3[nH]2)nc2ccccc21 (configuration not stated) | inconclusive [cytotoxic, partial curve] | –
COC(=O)C1(Cc2cc(-c3ccc([N+](=O)[O-])cc3)no2)CCN(C(=O)OC(C)(C)C)CC1 | inactive | –
COc1ccccc1CN(C)C(=O)C(c1ccccc1)c1ccccc1 | active: 16.4 µM | –
Cc1ccc(-n2c(C)cc(/C=N/NC(=O)c3ccncc3)c2C)cc1 | inconclusive [cytotoxic, single point] | –
CC(NC(=O)c1cc(COc2ccc3ncccc3c2)on1)c1ccc(F)cc1 (configuration not stated) | inconclusive [cytotoxic, single point] | –
COc1ccc(C=Cc2ccc3ccccc3n2)c(OC)c1 | inconclusive [cytotoxic, single point] | –
CC12CCC(C(=O)N/N=C/c3ccc(O)cc3O)(OC1=O)C2(C)C (configuration not stated) | inconclusive [cytotoxic, partial curve] | –
COc1ccc(NC(=S)Nc2ccc(OCc3ccccc3)cc2)c(OC)c1 | inactive | –
CC(OC(=O)C1CCN(S(=O)(=O)c2ccc(C(C)(C)C)cc2)CC1)C(=O)N1CCOCC1 (configuration not stated) | inactive | –
CC(C)Sc1ncc(S(=O)(=O)c2ccccc2)c(=O)[nH]1 | inactive | –
Cc1ccc(N=C2NC(=O)/C(=C/C=C/c3ccco3)S2)cc1 | inactive | –
Cc1ccc2nc(NC(=O)Cc3cccs3)sc2c1 | inconclusive [cytotoxic, single point] | –
COc1ccc2cc(C(=O)N/N=C/c3sc4ccccc4c3O)ccc2c1 | inconclusive [cytotoxic, single point] | –
COc1cc(OC)c(C(=O)O/N=C(\N)c2cccc(C)c2)cc1OC | inconclusive [cytotoxic, single point] | –
